Laboratory results: the supplement of paper PMC3334620
In all, about 33,000 sequences were measured (“E-score (-0.5 to 0.5)”: median about -0.032, highest 2% from about 0.36 on). The list shows a part of the results.

What follows are sequences tested against T1, Sko1 (UniProt Q02100) (assay: PBM E-score (8-mer binding enrichment) (E-score (-0.5 to 0.5)); higher = stronger / more preferred TF binding; most listed sequences are background and not binding sites). Conditions: protein concentration: 200 nM; construct: GST-full length.
T1 sequence: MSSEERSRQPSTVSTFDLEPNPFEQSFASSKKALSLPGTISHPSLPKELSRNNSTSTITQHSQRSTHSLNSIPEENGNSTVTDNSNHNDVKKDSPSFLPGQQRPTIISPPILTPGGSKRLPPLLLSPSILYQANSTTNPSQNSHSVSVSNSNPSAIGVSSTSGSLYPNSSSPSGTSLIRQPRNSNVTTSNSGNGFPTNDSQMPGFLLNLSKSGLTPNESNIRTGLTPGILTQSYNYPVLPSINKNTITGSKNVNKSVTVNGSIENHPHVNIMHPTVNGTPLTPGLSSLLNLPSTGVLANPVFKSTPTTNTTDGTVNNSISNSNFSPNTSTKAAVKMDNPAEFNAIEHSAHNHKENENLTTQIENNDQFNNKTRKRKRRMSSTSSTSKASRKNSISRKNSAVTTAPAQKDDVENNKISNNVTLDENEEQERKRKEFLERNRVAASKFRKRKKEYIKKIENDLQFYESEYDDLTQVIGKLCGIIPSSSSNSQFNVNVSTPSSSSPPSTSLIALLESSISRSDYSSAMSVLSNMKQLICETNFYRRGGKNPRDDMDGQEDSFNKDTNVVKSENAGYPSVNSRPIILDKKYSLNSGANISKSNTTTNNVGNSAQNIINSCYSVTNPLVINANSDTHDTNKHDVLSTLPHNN
Protocol: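 Universal 'all 10-mer' protein binding microarrays (Agilent AMADID 015681) probed with GST-tagged S. cerevisiae TFs (full-length or DBD) made by in vitro transcription/translation (PURExpress), about 100-200 nM. Bound TF was detected with fluorescent anti-GST. Each ungapped 8-mer (which stands for itself and its reverse complement) is scored by the PBM enrichment score (E-score), a modified Wilcoxon-Mann-Whitney statistic from -0.5 to +0.5, computed with the Universal PBM Analysis Suite. Scale: above 0.35 generally sequence-specific binding.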

| Sequence | PBM E-score |
| --- | --- |
| GCGAGGCC | -0.337 |
| ACCAACCG | 0.00076 |
| GACCAGAA | -0.0517 |
| GGGCCTTA | -0.0938 |
| GCCGGGCC | -0.296 |
| ACGAATAA | 0.3 |
| AGCCCCCA | -0.286 |
| TCCTTGCA | -0.292 |
| AGGTCTCG | -0.12 |
| GTTTCGAA | -0.0187 |
| GCAGAACA | -0.0426 |
| GTACGAAC | 0.284 |
| AGATATCC | -0.00522 |
| AAATGATT | 0.263 |
| ATGTCAGA | 0.181 |
| ACGATCGC | 0.103 |
| AGCGAACA | 0.0054 |
| CTACTGGA | -0.136 |
| TCCGTGAA | 0.0239 |
| GTAAAGGA | 0.0237 |
| CACTTGAG | -0.0823 |
| ACCCCCTA | -0.383 |
| AGGGACAA | -0.108 |
| TAAGAGCA | 0.0638 |
| GCTTAGAC | -0.212 |

| Sequence | PBM E-score |
| --- | --- |
| CCAAGGCC | -0.239 |
| ATGAGTGG | -0.122 |
| GCGAATCA | 0.104 |
| CCCCTGGA | -0.262 |
| CAATAAAG | 0.0505 |
| ACGCGCAT | 0.263 |
| CACGAACA | 0.11 |
| GCGCTCCC | -0.358 |
| CGCCGGGA | -0.442 |
| CATGTATA | 0.209 |
| TCCTGGCA | -0.0713 |
| ATGTTTGA | 0.0632 |
| ATAACGTA | 0.461 |
| ATGCTGTG | 0.0724 |
| CAGATCGC | -0.0406 |
| ATATCCCC | -0.246 |
| GGGTCACC | -0.346 |
| AGCGGGAG | -0.271 |
| AGGGCTAC | -0.264 |
| AGCAGCTC | -0.237 |
| ATGGGTCC | -0.274 |
| CTTGGTCA | 0.0157 |
| GCACGCTA | -0.138 |
| GCGGAAGA | -0.109 |
| CGCTCATC | -0.0319 |

| Sequence | PBM E-score |
| --- | --- |
| ATTAGGTG | 0.143 |
| ACAGCTAA | -0.0635 |
| ACCTGGTA | -0.167 |
| GAACAAGC | 0.00353 |
| ATCATTAG | 0.26 |
| ATCATACA | 0.257 |
| GAAAAGCC | -0.236 |
| TATGGGCA | -0.128 |
| CGCGTGTC | 0.159 |
| TGTTTAAA | 0.145 |
| GCGGCCCC | -0.364 |
| ATCTGGAC | -0.159 |
| AGGTCAGG | -0.395 |
| ATTTTAGC | -0.0022 |
| GGATTTCA | -0.0921 |
| GGTATTCA | 0.133 |
| AGCACTCC | -0.0955 |
| CACCTGTC | -0.232 |
| ACAGGGCA | -0.0363 |
| GTCTTATA | 0.19 |
| CAGATAAG | -0.0185 |
| GCGCTGCA | -0.0598 |
| GTCCCGCA | -0.182 |
| CTGGAACA | 0.152 |
| CCCGCTGC | -0.162 |

| Sequence | PBM E-score |
| --- | --- |
| CGCGCTGC | -0.147 |
| AGTCACTC | -0.0377 |
| AGTTGATA | 0.151 |
| GACTCACA | 0.0934 |
| CTGAACAG | -0.129 |
| CTCGATCA | -0.0926 |
| ACGCGAAA | 0.232 |
| ATCTAGTC | -0.136 |
| AGCTAAAC | -0.00852 |
| CGTCCTCC | -0.08 |
| CGTTATGA | 0.267 |
| AAAACTGT | 0.135 |
| AAACTTAC | 0.169 |
| AGAGTCGA | -0.192 |
| CTGACGAA | 0.373 |
| GCACTGCA | 0.0142 |
| GACGCTAA | 0.032 |
| ATGGGATC | -0.00149 |
| CCCCACCA | -0.12 |
| ACGGTCCC | -0.364 |
| AGCAAACC | 0.053 |
| CGGTCACG | -0.0207 |
| GCCGGCTA | -0.0506 |
| AATTAAAT | 0.174 |
| CAGCCGAG | -0.317 |

| Sequence | PBM E-score |
| --- | --- |
| CCATTTCC | -0.0706 |
| GCGTTTTA | 0.125 |
| CACGATAC | 0.0723 |
| AATAATAA | 0.238 |
| TCACGCCA | 0.195 |
| GTCCAAGA | -0.284 |
| AGACTCCA | -0.159 |
| AAGTACCA | 0.0286 |
| TAGTTGAA | 0.078 |
| TATAGGCA | -0.0485 |
| AAGCTGGT | -0.0738 |
| TGAAGCCA | -0.0432 |
| ATAACAGC | 0.139 |
| CCACGTTC | 0.0509 |
| CTCTCAAA | 0.157 |
| GGTAAGGA | -0.0271 |
| ATTGCTTG | -0.00897 |
| CGTCCACC | -0.115 |
| AAAACAAT | 0.138 |
| CATTGGGC | -0.143 |
| GACTTCAC | -0.166 |
| ATCCTTCA | 0.068 |
| GCACTCAC | -0.095 |
| GCGAGCGC | -0.14 |
| GGCTTAAA | 0.0193 |

| Sequence | PBM E-score |
| --- | --- |
| AAAATCGT | 0.243 |
| CAGAGCGC | -0.0734 |
| AGATCCAT | -0.135 |
| GTGCCAAC | -0.0665 |
| TAAACTTA | 0.131 |
| ATGGGAGA | -0.262 |
| CTGTTTCA | 0.196 |
| GGAGAACC | -0.227 |
| AGGCGCGG | -0.242 |
| AGGGTCCC | -0.26 |
| ATCCCTGA | -0.162 |
| GCGAAGCC | -0.208 |
| CCGAAAAG | -0.066 |
| CTGTCTCA | -0.185 |
| CAATATCC | -0.0293 |
| CCGGCTCC | -0.475 |
| AGTGCGGA | -0.057 |
| AGGGCCAC | -0.224 |
| GTTCGACA | 0.063 |
| ACGTAATG | 0.492 |
| AAACAGAT | 0.129 |
| AGCTTTGG | -0.172 |
| ATCCGTCC | -0.0981 |
| CGGGTACC | -0.259 |
| GAAACTTC | -0.00539 |

| Sequence | PBM E-score |
| --- | --- |
| ATTTCCAC | 0.0703 |
| ATTAAAGG | 0.0139 |
| AGCTCTTG | -0.0909 |
| CCCTTACC | -0.0536 |
| ACGAACCG | 0.105 |
| AGTGCTGA | -0.124 |
| ACGGCGGC | -0.163 |
| ATATATGA | 0.221 |
| CGGTCCAG | -0.124 |
| AACAACGC | 0.137 |
| AGCCTAAT | -0.0565 |
| AATATTAA | 0.327 |
| GACGTACC | 0.433 |
| ACGCTAGG | -0.104 |
| CTTTCGTA | 0.339 |
| GCCAGGCA | -0.0554 |
| ACGTCAAA | 0.447 |
| CACCCTTA | -0.0951 |
| GTATGATA | 0.329 |
| AAGCTTGG | -0.179 |
| ACGCCATG | 0.368 |
| AACCACCT | -0.0328 |
